# Test results published in PubChem BioAssay AID488969 (Vanderbilt High Throughput Screening Facility, 2010).
# Over roughly 110,000 compounds, “z-score” has its median near -0.1; the highest 2% begin near 2. Some of the results follow.
# Target: Metabotropic glutamate receptor 8 (Rattus norvegicus) (UniProt P70579)
# Test: mGluR8 Gi/Go-coupled signaling modulation – cell-based, rat, thallium flux, HTS, primary screen (AID 488969)
# Conditions: HEK293 rat mGluR8, GIRK (G protein-gated inwardly rectifying potassium channel) thallium flux, FluoZin2; at 10 µM; stronger effect = higher value; submaximal glutamate (EC20) added with thallium
# UniProt P70579, sequence (P70579 whole entry, looked up): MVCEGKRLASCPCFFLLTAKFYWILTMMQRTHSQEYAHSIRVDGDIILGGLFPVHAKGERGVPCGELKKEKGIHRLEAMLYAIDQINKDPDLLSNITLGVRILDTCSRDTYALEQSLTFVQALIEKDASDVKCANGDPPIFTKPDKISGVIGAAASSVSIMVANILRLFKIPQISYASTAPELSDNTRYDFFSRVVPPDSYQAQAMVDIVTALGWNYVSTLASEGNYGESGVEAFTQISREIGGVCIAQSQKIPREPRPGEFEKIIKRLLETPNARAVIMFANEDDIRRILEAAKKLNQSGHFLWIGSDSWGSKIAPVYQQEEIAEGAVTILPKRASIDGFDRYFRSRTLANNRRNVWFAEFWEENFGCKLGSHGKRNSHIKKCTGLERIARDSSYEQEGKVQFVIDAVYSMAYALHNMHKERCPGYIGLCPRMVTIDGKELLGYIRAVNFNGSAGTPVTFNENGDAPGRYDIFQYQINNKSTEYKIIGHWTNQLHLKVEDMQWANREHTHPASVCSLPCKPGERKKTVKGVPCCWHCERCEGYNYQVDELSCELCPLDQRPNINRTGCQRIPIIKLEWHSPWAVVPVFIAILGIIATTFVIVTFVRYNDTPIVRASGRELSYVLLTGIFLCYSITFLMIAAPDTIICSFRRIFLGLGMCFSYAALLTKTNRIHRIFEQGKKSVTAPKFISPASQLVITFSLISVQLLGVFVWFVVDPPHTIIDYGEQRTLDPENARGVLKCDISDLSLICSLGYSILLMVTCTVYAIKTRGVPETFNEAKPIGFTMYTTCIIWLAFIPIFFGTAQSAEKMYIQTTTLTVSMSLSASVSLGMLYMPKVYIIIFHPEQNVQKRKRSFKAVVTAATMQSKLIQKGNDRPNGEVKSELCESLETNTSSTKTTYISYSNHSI
row,SMILES,z-score
1,C=CCNC(=O)c1cc2c(=O)n3cc(C)ccc3nc2nc1NCC1CCCO1 (centres undefined),0.535
2,CC(CNC(=O)C1CCCCC1)NC(=O)C1CCCCC1 (centres undefined),-0.0103
3,CC(Oc1ccc(Cl)cc1Cl)C(=O)NCCCn1ccnc1 (centres undefined),0.308
4,CCOC(=O)c1c[nH]c(=O)c(Br)c1O,-0.121
5,CCOC(=O)c1ccccc1NC(=O)CSc1nnc(Cc2cccn2C)n1-c1ccc(C)cc1,-1.53
6,Nc1nc(CSCCO)nc(Nc2ccc(F)cc2)n1,0.255
7,Cc1cc(C)n(CCC(=O)N/N=C/c2ccc(O)cc2)n1,-0.284
8,Cn1nnnc1SCc1ccccc1[N+](=O)[O-],-0.65
9,CC1CCCCN1C(=O)CSc1nc(-c2ccccc2)cc(=O)[nH]1 (centres undefined),-0.155
10,Cc1ccc2nc(C3CCCN(C(=S)Nc4cccc(C)c4C)C3)[nH]c2c1 (centres undefined),0.0859
11,COc1ccc(C(C(=O)NC(C)(C)C)N(CC2CCCO2)C(=O)CCC(=O)Nc2cc(C)on2)cc1 (centres undefined),-0.202
12,CC(=O)Nc1ccc2nc(N)sc2c1,0.197
13,COc1ccccc1NC(=O)CCN1CCCCCC1,-0.247
14,Cc1cc(C(=O)NNC(=S)NCC2CCCO2)cs1 (centres undefined),0.555
15,CCOc1ccc(N2CC(C(=O)OCC(=O)NCc3ccccc3)CC2=O)cc1 (centres undefined),-0.5
16,Brc1cccc(CN2CCCCCCC2)c1,0.167
17,CCN(CC)S(=O)(=O)c1ccc(OC)c(NC(=O)CSc2cc(Cl)ccc2Cl)c1,0.0224
18,COc1ccc(N(CC(=O)NCc2ccccc2)S(=O)(=O)c2c(C)noc2C)cc1,0.353
19,CC12CCC(c3c(C(=O)O)nn(-c4ccc(F)cc4)c31)C2(C)C (centres undefined),-0.451
20,COc1ccc(C(=O)NC2CCN(C(=S)Nc3cccc(C)c3C)CC2)cc1,0.501
21,Cc1ccc(-c2nnc(SCC(=O)NNC(=O)COc3cccc4ccccc34)n2C)cc1,-0.0871
22,CCOc1ccc(-c2cc3nc(C4CCN(C(=O)OC(C)(C)C)CC4)c(C(=O)O)cn3n2)cc1,-0.472
23,CCOC(=S)SCC(=O)Nc1nc(-c2ccccc2)cs1,0.0871

row,SMILES,z-score
1,CCOC(=O)C1CCN(C(=O)N2CCOCC2)CC1,-0.296
2,COc1ccc(-c2nc(C#N)c(NCc3ccc(F)cc3)o2)cc1OC,-1.26
3,COc1ccc([N+](=O)[O-])cc1NC(=O)CSc1nccc(C)n1,-0.037
4,COc1ccc(C)cc1-n1nnnc1SCC(=O)c1ccc2c(c1)OCCO2,0.142
5,O=C(/C(=N/N=C/c1ccc(O)c(O)c1O)c1ccccc1)c1ccccc1,-0.216
6,CN1CN(C)c2cccc3cccc1c23,-0.472
7,COc1cc(CN2CCC(C(=O)N3CCCC(C)C3)CC2)cc(Br)c1O (centres undefined),0.673
8,Cc1ccc(/C=C/c2nnc(-c3cccc(C)c3)o2)cc1,-0.0561
9,CC(=O)c1nn(-c2cccc(Cl)c2)cc1C(=O)c1ccco1,0.0585
10,COc1ccc(C(=O)C(CN2CCOCC2)c2ccccc2)cc1 (centres undefined),0.845
11,CCc1cccc(CC)c1NC(=O)Cn1c(-c2ccccc2Cl)nc2ccccc21,-0.297
12,Cc1ccc(NC(=O)c2ccc(S(=O)(=O)C(F)F)cc2)c(C)c1,-0.657
13,COc1cc(NC2=CC(=O)CC(C)(C)C2)cc(OC)c1OC,0.32
14,CC1(C)CC(c2nc(-c3ccc(Br)cc3)cs2)CCS1 (centres undefined),2.26
15,COc1ccc2nc(SCC(=O)/C(C#N)=C(\C)N)[nH]c2c1,-0.0634
16,CCN(CC(=O)NC1CCS(=O)(=O)C1)C(=O)C(c1ccccc1)c1ccccc1 (centres undefined),-0.476
17,O=C(CCCN1C(=O)/C(=C/c2cccs2)SC1=S)NNC(=O)c1ccc(F)cc1,0.178
18,Cc1ccc(OCc2nc(C#N)c(N3CCCC3)o2)cc1,-0.342
19,CC(=O)Nc1ccc(S(=O)(=O)N2CCN(CC(=O)NC3CCCC3)CC2)cc1,0.0496
20,Cc1cc2nncn2c2ccccc12,-0.397
21,COc1ccc(CC(=O)NNC(=O)c2cnccn2)cc1,-0.09
22,C=CCNc1nc2c(c(=O)[nH]c(=O)n2C)n1CCCCC,-0.209
23,COc1ccc(CNc2ccc3c(c2)CCC3)cc1OC,-0.148

row,SMILES,z-score
1,O=C(/C=C/c1ccco1)NCC1CCCO1 (centres undefined),-0.494
2,CCc1cccc(C)c1NC(=O)C1C2CCC(O2)C1C(=O)O (centres undefined),-0.333
3,COC(=O)c1ccc(NC(=O)c2ccccc2N(C)S(C)(=O)=O)cc1,-0.176
4,c1ccc(COc2ccc(OCCCCN3CCCC3)cc2)cc1,0.565
5,O=C(O)CCC(=O)Nc1nc2ccccc2s1,0.0645
6,CCOc1cc(S(=O)(=O)NCc2ccccc2)c(OCC)cc1-n1cnnn1,0.0994
7,CCN1CCN(c2nc(-c3ccccc3)nc3ccccc23)CC1,0.12
8,COc1ccccc1CNC(=O)CCNS(=O)(=O)c1cccc2nsnc12,-0.0935
9,CC(C)C(CCN1C(=O)c2ccccc2C1=O)c1ccco1 (centres undefined),-0.0448
10,N#Cc1c(SCC(=O)Nc2ccccc2)nsc1SCC(=O)Nc1ccccc1,-0.42
11,Cc1oc(-c2cccc(Cl)c2)nc1CN1CCC(C(=O)NCCCN2CCCC2=O)CC1,-0.113
12,C=CCSc1ncccc1C(=O)O,0.437
13,CCOC(=O)c1cc(C)n(CCc2ccccc2)c1C,-0.341
14,Cc1c(NC(=O)C(C)OC(=O)c2cccs2)c(=O)n(-c2ccccc2)n1C (centres undefined),0.0558
15,CCc1ccccc1N(CC(=O)N/N=C/c1ccc(OC(=O)OC)c(OC)c1)S(C)(=O)=O,-0.214
16,Nn1c(SCC(=O)NCc2ccccc2)nncc1=O,0.234
17,COc1ccc(C2C(C#N)=C(N)Oc3c2c(C)nn3-c2ccccc2)cc1Cn1nc(C)c([N+](=O)[O-])c1C (centres undefined),-1.18
18,CCCCCN(C(=O)NC(=O)Nc1ccccc1C)S(=O)(=O)c1ccccc1,-0.518
19,O=C(Oc1ccccc1)c1ccc(-n2cnnn2)cc1,0.5
20,Cc1ccc(NC(=O)C(C)OC(=O)CCNS(=O)(=O)c2ccc(C)cc2)cc1 (centres undefined),0.0934
21,CC(=O)NC(=O)COC(=O)/C=C/c1c(C)nn(Cc2c(Cl)cccc2Cl)c1Cl,-0.49
22,O=C(CN(Cc1ccco1)C(=O)CNS(=O)(=O)c1ccc(F)cc1)NCc1ccc(F)cc1,0.167
23,Cc1cc(C)c2c(-n3cccc3)c(C(=O)O)sc2n1,-0.785

row,SMILES,z-score
1,O=C(c1c[nH]c2ccc(F)cc2c1=O)N1CCCCCC1,0.464
2,C/C(=N\Nc1ccc(Cl)c(Cl)c1)c1ccc(-n2ccnc2)cc1,-0.187
3,CCOC(=O)c1ccc(NC(=S)NNC(=O)COC)cc1,-0.275
4,COc1cccc(CN(Cc2ccco2)S(=O)(=O)c2ccc(S(=O)(=O)NCc3ccccc3)cc2)c1OC,0.483
5,O=C(CN1C(=O)C2C3C=CC(C3)C2C1=O)NCC1COc2ccccc2O1 (centres undefined),-0.696
6,COc1cccc(N2C(=O)c3ccncc3C2=O)c1,-0.133
7,COc1ccc(CNC(=O)C(c2ccco2)N(Cc2ccccc2)C(=O)Cc2cccs2)cc1 (centres undefined),-0.316
8,COc1ccccc1NCC(=O)N/N=C/c1cccnc1,-0.0577
9,COc1ccc(/C=N/Nc2ncnc3sc4c(c23)CCCC4)cc1OC,0.0529
10,COc1cccc2c(=O)n(CC(=O)NC3CCCCC3)ccc12,-0.321
11,O=C(CN1C(=O)c2cccc3cccc1c23)NCc1ccc2c(c1)OCO2,-0.178
12,COc1ccccc1-n1c(-c2cn(C)nc2C)n[nH]c1=S,-0.126
13,Cc1ccc(O)c(C(=O)c2cc(C(=O)NCCc3ccccc3)c(=O)n(CCc3ccccc3)c2)c1,-0.117
14,OC(CNCc1ccc(F)cc1)(c1ccccc1)c1ccc(F)cc1 (centres undefined),-0.174
15,COc1ccc(C(=O)CC2OC(=O)c3ccccc32)cc1OC (centres undefined),-0.48
16,Nc1c(C(=O)NCc2ccco2)nnn1CC(=O)Nc1ccccc1,0.358
17,CCc1n[nH]c(=O)n1Cn1c(CC)n[nH]c1=O,0.876
18,C#CCSc1nnc(CSc2nc3ccccc3s2)n1-c1ccccc1,-0.395
19,Cc1ccccc1OCC(=O)NN1CCN(C)CC1,0.122
20,COc1ccc2c(c1)C1(Nc3ccccc3C(=O)N1c1ccccc1)C(=O)N2 (centres undefined),0.642
21,Cc1ccsc1/C=C1\SC(N)=NC1=O,0.0887
22,COc1ccc(/C=N/NC(=S)Nc2ccccc2)cc1COc1ccc(F)cc1F,-0.047
23,Cc1cc(N2CCCC2=O)cc(C)c1S(=O)(=O)NCCOc1ccccc1,0.41

row,SMILES,z-score
1,CCS(=O)(=O)c1ccc2oc(SCC(=O)NC(C)C3CC4CCC3C4)nc2c1 (centres undefined),0.154
2,O=c1[nH]c2ccccc2nc1NCCN1CCOCC1,0.25
3,O=C(NCC1CCCCC1)C1CCN(C(=O)NC2CCCCC2)CC1,-0.403
4,CCCOC(=S)Nc1ccccc1,0.258
5,COc1ccc(C(=O)NCC(=O)OCC(=O)N2CCCc3ccccc32)cc1,-0.509
6,Cc1csc(NC(=O)CSc2nnc(CCNC(=O)c3ccc(Cl)c(Cl)c3)n2C)n1,-0.837
7,CCOC(=O)C1=C(C)N(C)C(=S)NC1c1ccc(Cl)cc1 (centres undefined),-0.242
8,Oc1c(Cl)cccc1C=Nc1cc(C(F)(F)F)ccc1N1CCCC1,-0.231
9,CSc1ccc(Cl)c(C(=O)OCC(=O)NCc2ccco2)c1,-0.588
10,Cc1ccccc1C(=O)Nc1cccc(NC(=O)Cn2cnc3c(=O)n(C)c(=O)n(C)c32)c1,-2.15
11,Cc1cccc2nc(CNc3ccc(F)cc3)cn12,-0.69
12,CN1C(=S)SC(C)(C)C1(C)NO (centres undefined),0.0261
13,O=C(NCc1ccco1)c1cc2c(s1)CSC2,0.353
14,CC(=O)Nc1ccc(/C=N/NC(=O)c2cc3ccccc3nc2C)cc1,-1.24
15,CCC(=O)Nc1ccc(NC(=O)Cc2ccccc2)cn1,-0.14
16,Cc1cc2oc(C(=O)Nc3ccc(S(=O)(=O)N4CCCC(C)C4)cc3)cc(=O)c2cc1Cl (centres undefined),-0.311
17,CCC(=O)N(CCC(Cc1ccccc1)c1ccc2c(c1)OCO2)Cc1ccccc1F (centres undefined),0.151
18,CCC(Sc1nc2c(cnn2-c2ccccc2)c(=O)[nH]1)C(=O)OC (centres undefined),-0.468
19,CN(C)S(=O)(=O)c1ccc(C(=O)Nc2ccc(CCC(=O)N3CCCC3)cc2)cc1,-0.523
20,CCN(CC)C(=O)CSc1nc2sc(C)c(C)c2c(=O)[nH]1,0.178
21,Oc1ccc(/C=N\Nc2cc(N3CCOCC3)nc(N3CCOCC3)n2)c(O)c1,-0.52
22,CCOC(=O)c1cc2c(c(CSc3nc4ccccc4c(=O)n3Cc3ccco3)c1)OCOC2,-0.113
